Laboratory results from a collection of fitness landscapes (doi:10.1016/j.celrep.2020.107928).
The full ranking holds about 81,000 sequences; the median of “one-hybrid fitness for binding NBS DNA” is about -0.1, and the highest 2% start at about 0.36. Some of the results follow.

B1: Caulobacter ParB omega fusion; a variant is named by its letters at X, in order, B8GW30 (parent)
chain: MESVVVGEPGMSEGRRGLGRGLSALLGEVDAAPAQAPGEQLGGSREAPIEILQRNPDQPRRTFREEDLEDLSNSIREKGVLQPILVRPSPDTAGEYQIVAGERAWRAAQRAGLKTVPIMVRELDDLAVLEIGIIENVQRADLNVLEEALSYKVLMEKFERTQENIAQTIGKSXSHVANXMRLLXLPDEVQSYLVSGELTAXHARAIAAAADPVALAKQIIEGGLSVRETEALARKAPNLSAGKSKGGRPPRVKDTDTQALESDLSSVLGLDVSIDHRGSTGTLTITYATLEQLDDLCNRLTRGI

Variants of: B1
Assay: one-hybrid fitness for binding NBS DNA (the Noc-binding site; scaled: cognate 1, non-cognate 0); higher = stronger binding
Details: with NBS DNA site
In short: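 Selection: bacterial one-hybrid in E. coli USO, HIS3 reporter with the site 19 bp from the promoter, 48 hours at 37°C on M9-minus-histidine plus 0.1 mM IPTG and 5 mM 3-AT. Libraries were Caulobacter ParB with four randomised specificity codons, sequenced on Illumina before and after selection. Fitness is the rescaled log change in variant-to-wild-type read ratio, anchored to the cognate and non-cognate sites.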

Row | Variant | one-hybrid fitness for binding NBS DNA
1 | KRWR | 0.578
2 | TKPG | ≤ 0.2
3 | TQLS | ≤ 0.2
4 | AFPL | ≤ 0.2
5 | CRNG | ≤ 0.2
6 | YLQC | ≤ 0.2
7 | VEPS | ≤ 0.2
8 | NYHR | ≤ 0.2
9 | QHQA | 0.315
10 | QLFG | ≤ 0.2
11 | TTCH | ≤ 0.2
12 | LDSR | ≤ 0.2
13 | AWLG | ≤ 0.2
14 | SRLE | ≤ 0.2
15 | PCKS | ≤ 0.2
16 | HNQT | ≤ 0.2
17 | QEFR | ≤ 0.2
18 | FRNS | ≤ 0.2
19 | QVAP | ≤ 0.2
20 | KHQH | ≤ 0.2
21 | QILF | ≤ 0.2
22 | IPTK | ≤ 0.2
23 | GHLM | ≤ 0.2
24 | QKFT | 0.366
25 | NACG | ≤ 0.2
26 | QNMN | ≤ 0.2

Row | Variant | one-hybrid fitness for binding NBS DNA
27 | TPGN | ≤ 0.2
28 | SRPE | ≤ 0.2
29 | HPKC | ≤ 0.2
30 | NAHG | ≤ 0.2
31 | DEYM | ≤ 0.2
32 | TTFT | ≤ 0.2
33 | AWVD | ≤ 0.2
34 | SNNC | ≤ 0.2
35 | SSSD | ≤ 0.2
36 | MVSR | 0.258
37 | RKMF | ≤ 0.2
38 | AWMG | ≤ 0.2
39 | TKGA | ≤ 0.2
40 | DQNR | ≤ 0.2
41 | STQR | ≤ 0.2
42 | RWTE | ≤ 0.2
43 | QMMV | ≤ 0.2
44 | WLRA | ≤ 0.2
45 | RMHL | ≤ 0.2
46 | QMQD | ≤ 0.2
47 | KITG | ≤ 0.2
48 | NTHN | ≤ 0.2
49 | FCST | ≤ 0.2
50 | MVCP | ≤ 0.2
51 | MAQG | ≤ 0.2
52 | TEES | ≤ 0.2

Row | Variant | one-hybrid fitness for binding NBS DNA
53 | GKSV | ≤ 0.2
54 | QDEW | ≤ 0.2
55 | RAWP | ≤ 0.2
56 | KFDS | ≤ 0.2
57 | RYHP | ≤ 0.2
58 | NDRF | ≤ 0.2
59 | HRNM | ≤ 0.2
60 | VDHC | ≤ 0.2
61 | QMGL | ≤ 0.2
62 | NSHG | ≤ 0.2
63 | WYST | ≤ 0.2
64 | MEKC | ≤ 0.2
65 | DHLT | ≤ 0.2
66 | YFLG | ≤ 0.2
67 | GNRR | ≤ 0.2
68 | GPSI | ≤ 0.2
69 | KKRH | ≤ 0.2
70 | SMVT | ≤ 0.2
71 | TRAL | ≤ 0.2
72 | QAII | ≤ 0.2
73 | LPLA | ≤ 0.2
74 | MKKN | ≤ 0.2
75 | RYTN | ≤ 0.2
76 | IRYL | ≤ 0.2
77 | MVAS | ≤ 0.2
78 | HHLN | ≤ 0.2

Row | Variant | one-hybrid fitness for binding NBS DNA
79 | PNDG | ≤ 0.2
80 | WITN | ≤ 0.2
81 | SWHW | ≤ 0.2
82 | IRPC | ≤ 0.2
83 | MKVG | ≤ 0.2
84 | TTVY | ≤ 0.2
85 | TDAL | ≤ 0.2
86 | WRRH | ≤ 0.2
87 | VHTC | ≤ 0.2
88 | VQCR | ≤ 0.2
89 | MTIR | ≤ 0.2
90 | NLKV | ≤ 0.2
91 | PKDH | ≤ 0.2
92 | QFPF | ≤ 0.2
93 | RAIL | ≤ 0.2
94 | PKST | ≤ 0.2
95 | SCLS | ≤ 0.2
96 | SLVE | ≤ 0.2
97 | QHVM | ≤ 0.2
98 | FLLS | ≤ 0.2
99 | RCNQ | ≤ 0.2
100 | MDHW | ≤ 0.2
101 | KIDY | ≤ 0.2
102 | CVMS | ≤ 0.2
103 | EKNT | ≤ 0.2
104 | QEPA | ≤ 0.2

Row | Variant | one-hybrid fitness for binding NBS DNA
105 | CKMF | ≤ 0.2
106 | DGKT | ≤ 0.2
107 | QDHK | ≤ 0.2
108 | ENLT | ≤ 0.2
109 | RSVY | ≤ 0.2
110 | TVKW | ≤ 0.2
111 | APCF | ≤ 0.2
112 | MYSC | ≤ 0.2
113 | NSNW | ≤ 0.2
114 | IMTT | ≤ 0.2
115 | MTPD | ≤ 0.2
116 | KIHS | ≤ 0.2
117 | RKYS | 0.562
118 | FTPG | ≤ 0.2
119 | LDKN | ≤ 0.2
120 | EPPG | ≤ 0.2
121 | KHVN | ≤ 0.2
122 | FYAE | ≤ 0.2
123 | FVCV | ≤ 0.2
124 | KPWC | ≤ 0.2
125 | PRQF | ≤ 0.2
126 | KSST | ≤ 0.2
127 | LDHE | ≤ 0.2
128 | YRRI | ≤ 0.2
129 | SAMY | ≤ 0.2
130 | YVIT | ≤ 0.2

Row | Variant | one-hybrid fitness for binding NBS DNA
131 | SWRK | ≤ 0.2
132 | QPAH | ≤ 0.2
133 | DSAA | ≤ 0.2
134 | FRDT | ≤ 0.2
135 | QVSL | ≤ 0.2
136 | GRYA | ≤ 0.2
137 | SGSN | ≤ 0.2
138 | FASG | ≤ 0.2
139 | RSPA | ≤ 0.2
140 | FRYR | ≤ 0.2
141 | PAAQ | ≤ 0.2
142 | RFWS | ≤ 0.2
143 | VRWR | ≤ 0.2
144 | RMAI | ≤ 0.2
145 | ATFP | ≤ 0.2
146 | ASTL | ≤ 0.2
147 | QTYL | ≤ 0.2
148 | AIEW | ≤ 0.2
149 | KTYG | ≤ 0.2
150 | GDYR | ≤ 0.2
151 | PKAW | ≤ 0.2
152 | RSSY | ≤ 0.2
153 | GNVV | ≤ 0.2
